According to ChEMBL document CHEMBL5308541, “MAIP: An Open-Source Tool to Enrich High-Throughput Screening Output and Identify Novel, Druglike Molecules with Antimalarial Activity” (ACS Med Chem Lett, 2023):
Hit rate of the full screen: of about 150,000 compounds, about 540 (0.36%) showed an effect of 50% or more. The list shows a part of the results.

tested on: Plasmodium falciparum; test: Primary screen in NF54 nanoGlo assay, in single point, at 2uM, 72h; a lower Z score goes with more inhibition; type: functional, Erythrocyte; conditions: timepoint 72 hour

| SMILES | % Inhibition | Z score |
| --- | --- | --- |
| CN(C)c1cc(C(F)(F)F)nc(N2CCOC[C@@H]2Cc2c[nH]c3ccccc23)n1 | -4% | 0.67 |
| FC(F)(F)CCN1CCC(Nc2cccc(-c3ncon3)c2)CC1 | -1% | 0.21 |
| COc1ccc2[nH]cc(CCNC3CCN(C(=O)c4ccncc4)CC3)c2c1 | 0% | 0.02 |
| O=C(c1ccco1)N1CCC[C@H](Nc2nccc(-c3ccccn3)n2)C1 | -8% | 1.68 |
| Cn1cc(Cl)c(NC(=O)C2CC2c2ccncc2)n1 (stereo unspecified) | 6% | -1.2 |
| Cc1nn(-c2ccc(C(=O)N3C[C@H](C)OC4(CCOCC4)C3)cc2)c(C)c1Br | -3% | 0.48 |
| c1cc(CNC2CCN(CC3CC3)CC2)cc(N2CCOCC2)c1 | -6% | 0.92 |
| Cc1cc(O)c(Cl)cc1-c1cccc2c(N)ccnc12 | 82% | -14.53 |
| CCCC1CN(CC(=O)N2CCCCC2)CC1Nc1ccnc(N)n1 (stereo unspecified) | 5% | -0.9 |
| CCC[C@H]1CN(c2nc(N)c3cnn(C)c3n2)CCN1CCOC | -8% | 1.37 |
| COc1ccc(CNCc2c(-c3ccccc3)[nH]c3ccccc23)cc1 | -10% | 1.8 |
| CC1(C)C[C@H](O)c2cccc(NC(=O)c3cnc4n3CCCC4)c2O1 | 6% | -1.03 |
| CN(CCCc1ncc[nH]1)CCN1CCN(c2ccccc2)CC1 | 0% | 0.07 |
| Cn1c(NCc2ccc(N3N=C(c4ccccc4)C[C@H]3c3ccccc3)cc2)nc2ccccc21 | -11% | 1.96 |
| Cc1ccc(-c2ccc3nnc(CCC(=O)N4CCN(c5ccccc5Cl)CC4)n3n2)cc1C | 0% | 0.04 |
| O=C(NCC1CCN(c2ccncc2)CC1)[C@@H]1OCCc2ccccc21 | -2% | 0.35 |
| Cc1cc(C(F)(F)F)nc(CCNc2nccc(-c3ccncc3)n2)n1 | -2% | 0.4 |
| O=C(c1onc2c1CCCC2)N1CC[C@@H](Nc2ncnc3ccc(F)cc23)C1 | -15% | 2.76 |
| CCC[C@H]1CN(c2cc(C)nc(-c3ccccn3)n2)CCN1 | 5% | -0.72 |
| CN(c1ccccc1)c1ccc(CN2CCN([C@H]3CCNC3)CC2)cc1 | 68% | -13.59 |
| COc1ccc2c(N[C@H]3CCN(C4CCCC4)C3)ncnc2c1F | 2% | -0.45 |
| C[C@@H](CN1CCCCCC1)NC1CCN(C2CCS(=O)(=O)CC2)CC1 | 0% | 0.03 |
| Nc1ccc(N2CCN(c3ncnc4[nH]ncc34)CC2)cn1 | -18% | 3.66 |
